# Experimental data reported in PMC4336329 (PLoS ONE, 2015).
# Out of some 310,000 compounds screened, about 14,000 (4.5%) showed an effect of 50% or more. The effect is printed as a negative number. The list shows a part of the results.
# Molecular target: human ether-à-go-go-related gene (hERG) potassium channel (human, UniProt Q12809)
# Assay: primary screen, population patch clamp on CHO cells stably expressing hERG
# 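Also: peak tail current of the secondary pulse compared with the same well before compound.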
# Sequence of human ether-à-go-go-related gene (hERG) potassium channel (Q12809 whole entry, looked up): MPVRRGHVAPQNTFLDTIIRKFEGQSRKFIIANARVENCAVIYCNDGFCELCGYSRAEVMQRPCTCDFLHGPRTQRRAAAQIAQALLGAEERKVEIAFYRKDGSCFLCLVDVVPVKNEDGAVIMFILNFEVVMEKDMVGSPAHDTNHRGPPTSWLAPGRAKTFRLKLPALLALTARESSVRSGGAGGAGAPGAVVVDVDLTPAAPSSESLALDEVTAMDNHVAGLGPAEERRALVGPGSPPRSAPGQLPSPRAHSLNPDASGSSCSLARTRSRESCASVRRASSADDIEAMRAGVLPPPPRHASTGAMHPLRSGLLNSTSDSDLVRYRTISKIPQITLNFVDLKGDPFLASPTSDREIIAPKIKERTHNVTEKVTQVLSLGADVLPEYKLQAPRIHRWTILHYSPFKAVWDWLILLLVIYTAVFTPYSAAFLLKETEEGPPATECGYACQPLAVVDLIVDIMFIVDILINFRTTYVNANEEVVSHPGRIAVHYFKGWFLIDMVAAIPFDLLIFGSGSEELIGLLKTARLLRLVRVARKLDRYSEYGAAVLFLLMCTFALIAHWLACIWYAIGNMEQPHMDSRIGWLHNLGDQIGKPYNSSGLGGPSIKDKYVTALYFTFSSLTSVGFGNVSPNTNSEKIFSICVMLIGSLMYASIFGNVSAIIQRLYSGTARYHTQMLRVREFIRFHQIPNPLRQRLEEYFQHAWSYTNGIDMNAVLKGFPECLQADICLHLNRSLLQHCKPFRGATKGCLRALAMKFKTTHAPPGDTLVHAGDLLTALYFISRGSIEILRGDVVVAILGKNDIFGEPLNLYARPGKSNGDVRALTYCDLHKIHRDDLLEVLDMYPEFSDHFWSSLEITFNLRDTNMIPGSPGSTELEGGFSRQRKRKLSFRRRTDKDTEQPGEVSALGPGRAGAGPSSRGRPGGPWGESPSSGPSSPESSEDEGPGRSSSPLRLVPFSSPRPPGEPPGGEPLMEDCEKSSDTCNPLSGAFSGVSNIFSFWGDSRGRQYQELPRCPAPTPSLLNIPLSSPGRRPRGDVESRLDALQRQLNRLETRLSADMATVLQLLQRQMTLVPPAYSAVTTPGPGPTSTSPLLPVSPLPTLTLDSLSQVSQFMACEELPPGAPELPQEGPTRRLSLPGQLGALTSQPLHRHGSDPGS
row,Compound,"hERG current change (%, negative = inhibition) at 10uM [%]"
1,COc1ccc(OC)c(NC(=O)CCc2nnc3ccc(NCc4ccco4)nn23)c1,-15.2
2,CC1=CCC2C(=O)N(c3nc4ccccc4n3C)C(=O)C2C1 (stereo not drawn),-4.38
3,CC1(c2cccc(Br)c2)NC(=O)N(CC(=O)Nc2ccc3c(c2)OCO3)C1=O (stereo not drawn),-12.5
4,COc1ccccc1CNC(=O)c1ccc(OCc2c(C)noc2C)c(OC)c1,-7.82
5,NS(=O)(=O)c1cc(Cl)c(NC(=O)COC(=O)c2ccccn2)c(Cl)c1,5.59
6,O=C(CSc1nnc(NC(=O)C2CC(=O)N(c3ccccc3)C2)s1)NCC1CCCO1 (stereo not drawn),17.5
7,Cc1cc(C)c2c(n1)nn1c(N3CCN(c4ccccc4)CC3)cc(C)nc21,4.66
8,COc1ccccc1NC(=O)N1CCCC1C(=O)NCc1ccccc1Cl (stereo not drawn),7.24
9,CC(=O)N(c1ccccc1)c1nc(/C=C/C(=O)Nc2c(C)cc(C)cc2C)cs1,2.03
10,CN(C)CCOc1ccc2ccccc2c1.O=C(O)C(=O)O,-14.3
11,CC(/C=N/Nc1nnc(C)c(=O)[nH]1)=C\c1ccccc1,-10.5
12,COc1ccc(NC(=O)c2cc3c(=O)n4ccccc4nc3n2C)c(OC)c1,2.99
13,CC(C)(C)c1cccc(Cn2nnc3ccccc32)c1O,17.2
14,O=C(NCCO)Nc1ccc(Cl)cc1,27.7
15,COc1ccc(C(=O)Nc2ccnn2C2CCN(Cc3cn(C)nc3C)CC2)cc1,17.1
16,Cc1cccc2cc(COC(=O)c3cccc([N+](=O)[O-])c3)c(=O)[nH]c12,21
17,Cc1onc(-c2ccccc2Cl)c1C(=O)Nc1cc(=O)n(C)c(=O)n1C,6.1
18,COC(=O)c1ccccc1NC(NC(=O)c1ccco1)C(=O)c1ccc(C)cc1 (stereo not drawn),8.65
19,CCCOc1ccc(N2C(=O)CC(N3CCN(S(=O)(=O)c4ccccc4)CC3)C2=O)cc1 (stereo not drawn),-20.2
20,O=C(NCC1CC1)Nc1ccccc1,16.3
21,Cc1cc(Cl)c(S(=O)(=O)NC2CCCC2)cc1OCC(=O)NC1CCCCC1,-7.18
22,Cc1cc2nc(-c3cccnc3SCC(=O)NCc3ccco3)[nH]c2cc1C,-5.15

row,Compound,"hERG current change (%, negative = inhibition) at 10uM [%]"
1,CSc1ccccc1OCc1cc(C(=O)N(C)Cc2ccc3nsnc3c2)no1,-6.26
2,Cc1nc2ccccc2c(=O)n1NCc1cccs1,3.57
3,CCc1ccccc1NC(=O)CN(C)Cc1nc(N)nc(Nc2ccccc2C)n1,-9.54
4,CCn1c(C)cc(/C=C2\NC(=O)N(CC(=O)Nc3cccc(C)c3)C2=O)c1C,-2.28
5,COc1ccc(C(=O)Nc2cccc(-c3nc4ncccc4o3)c2C)cc1OC,9.5
6,Cc1ccc(NC(=S)NCc2ccccc2Cl)c(C)c1,2.81
7,CCOC(=O)C1C(c2cccs2)NC(=O)N(C)C1(O)C(F)(F)F (stereo not drawn),6.86
8,COc1cc(CNC(=O)CCCC/C=C/C(C)C)ccc1O,-1.51
9,COc1ccccc1NC(=O)C(C)OC(=O)CCC1CCCCC1 (stereo not drawn),-1.56
10,CCOc1ccccc1-n1nnnc1SCC(=O)Nc1cc2oc3ccccc3c2cc1OC,8.28
11,O=C1c2ccccc2C(Nc2ccc3c(c2)OCCO3)N1Cc1ccco1 (stereo not drawn),-9.55
12,O=C(c1cn(-c2ccccc2)nc1-c1cc2ccccc2oc1=O)N1CCOCC1,-49.9
13,COc1cc(OC)cc(C(=O)NCCc2ccc(OC)c(OC)c2)c1,4.31
14,CC(=O)NS(=O)(=O)c1ccc(NC(=O)c2ccccn2)cc1,18.7
15,Cc1ccc(NC(=S)NCC23C=CC(O2)C2C(=O)N(c4ccc(C)cc4)C(=O)C23)cc1 (stereo not drawn),-22
16,CC1CCCCC1NC(=O)CN1CCC(NC(=O)c2ccc([N+](=O)[O-])cc2)CC1 (stereo not drawn),2.55
17,O=C(Cn1cnc2c(cnn2-c2ccc(Cl)cc2)c1=O)NC1CCCCC1,9
18,O=C(COC(=O)Cn1cnc2ccccc2c1=O)Nc1cc(Cl)ccc1[N+](=O)[O-],-5.25
19,COc1ccc(N(C)C(=O)C2CCCN2S(=O)(=O)c2cccc3nsnc23)cc1 (stereo not drawn),-10.5
20,N#C/C(=C\c1ccccn1)c1ccccn1,12.1
21,CCC12CN(C(=O)c3ccco3)CC(CC)(CN(C(=O)c3ccco3)C1)C2=O,13.6
22,COc1ccc(Cl)cc1S(=O)(=O)N1CCN(Cc2ccc3c(c2)OCO3)CC1,-16

row,Compound,"hERG current change (%, negative = inhibition) at 10uM [%]"
1,N#Cc1ccccc1OCC(=O)OCC(=O)NC1CC1,11.6
2,CC(C)c1ccc(OCC(=O)NC2=NCCS2)cc1,1.4
3,O=C(COc1ccccc1[N+](=O)[O-])Nc1cc(Cl)ccc1C(=O)O,5.94
4,O=C(COC(=O)c1cccnc1Cl)Nc1ccc2c(c1)OCO2,2.28
5,CCOc1ccccc1NC(=O)C(Sc1ccccc1)c1ccccc1 (stereo not drawn),9.32
6,CCCN(CC1CC1)C(=O)COC(=O)c1ccc2c(c1)C(=O)N(c1ccc(OCC)cc1)C2=O,-44.8
7,CCCCNC(=O)Nc1ccc2c(c1)N(C)C(=O)c1ccccc1S2,19.7
8,COc1ccc(S(=O)(=O)c2cnc3ccccc3n2)cc1,11.7
9,CCc1ccccc1NC(=S)NN,24.6
10,O=C(CC1SC(=O)N(Cc2ccc(Cl)cc2)C1=O)Nc1nccs1 (stereo not drawn),-4.51
11,COCCC(=O)N1CCC(Oc2ccc(C(=O)N3CCCCC3COC)cc2)CC1 (stereo not drawn),17.2
12,Cc1cc(=O)[nH]c(SCC(=O)N2CCN(S(=O)(=O)c3ccccc3)C2)n1,2.92
13,O=C(/C=C/c1ccc(F)cc1)Nc1nc2ccccc2[nH]1,-18.7
14,CCOCCCNC(=O)c1ccc(-n2c(=S)[nH]c3ccccc3c2=O)cc1,10.8
15,CCN(CC)S(=O)(=O)c1ccc(NC(=O)CSc2cccc[n+]2[O-])cc1,-10.7
16,CC(=O)N1c2ccc(F)c(F)c2C[C@H]1C,16.2
17,CN(CCCC(=O)O)c1ccc(N=Nc2ccc([N+](=O)[O-])cc2)cc1,14.8
18,COc1ccc(OC)c(Nc2ccc(C(=O)O)cc2[N+](=O)[O-])c1,9.47
19,Cc1cc(C)nc(-n2ncc3c2CC(c2ccccc2C)CC3=O)n1 (stereo not drawn),-6.94
20,COC(c1ccccc1)c1nnc(CCC(=O)N2CCN(CCOc3ccccc3)CC2)o1 (stereo not drawn),-19.1
21,CCOc1ccc(-c2nn(-c3ccccc3)cc2/C=C2\SC(N)=NC2=O)cc1C,11.2
22,Cn1c(=O)c2c(nc(NCCCN3CCOCC3)n2Cc2cccc(Cl)c2)n(C)c1=O,-9.57

row,Compound,"hERG current change (%, negative = inhibition) at 10uM [%]"
1,Cc1cccc(N2CCC(NCc3c(C(=O)N4CCCCC4)nc4c(C)cccn34)CC2)c1,-46.6
2,Cc1cccc(C#N)c1,8.77
3,C=CCCN(C(CC(C)C)C(=O)OC)S(=O)(=O)c1ccccc1Br (stereo not drawn),1.66
4,CCC(=O)NC(=S)Nc1cccc(NC(=O)c2ccccc2Cl)c1,-0.673
5,COc1cc2c(cc1O)C[C@H]1c3c(cc(O)c(OC)c3-2)CCN1C,-70.1
6,CN(C)c1ccc(/C=N/NC(=O)c2nnn(-c3nonc3N)c2CN(C)c2ccccc2)cc1,4.74
7,O=C(CN1CCCCC1)Nc1nc(-c2ccc(Cl)cc2)cs1,4.65
8,Cc1nc(N2CCN(C)CC2)c2sc(=S)n(C)c2n1,-7.2
9,O=C(c1ccccc1F)N1CCC2(CC1)OCCO2,30.8
10,COC(=O)CCCC1=CC2=CC(=O)C(C)(OC(=O)c3cccs3)C(=O)C2=CN1CCN1CCOCC1 (stereo not drawn),-0.177
11,CCOC(=O)Cc1csc(NC(=O)c2csc3c2CCCC3)n1,-13.5
12,COc1ccc(CNC(=O)C(NS(=O)(=O)c2cccc3nsnc23)C(C)C)cc1 (stereo not drawn),-2.66
13,C=CCNC(=O)COC(=O)c1c2c(nc3ccccc13)CCC2,8.33
14,O=C(NC1CCCCC1)C1CCN(C(=O)c2ccc(Cl)cc2)CC1,-6.16
15,Cc1nn(C)c(Cl)c1CN1CCCC(CO)(Cc2ccccc2)C1 (stereo not drawn),-6.66
16,COc1cc(C(=O)N/N=C/c2ccc(OC)c(CN3CCN(c4ccc(F)cc4)CC3)c2)ccc1O,-75.3
17,O=C(N/N=C/c1ccc(O)cc1O)NC12CC3CC(CC(C3)C1)C2,7.43
18,O=C(CCCSc1nc(-c2ccco2)cc(C(F)(F)F)n1)Nc1ccc2c(c1)OCO2,9.62
19,CCOc1ccc2nc(NCCNC(=O)Nc3ccccc3)c(C#N)cc2c1,-9.39
20,O=C(c1ccc(N2CCCC2=O)cc1)N1CCN(c2ccccc2Cl)CC1,-12.1
21,Cc1onc(-c2c(F)cccc2Cl)c1C(=O)Nc1cccc(S(=O)(=O)NCc2ccco2)c1,-5.18
